In PMC12820563:
The other results are listed elsewhere or left out. The list includes weakly bound sequences.

Biological target: T1, MBP-FoxP3dN (UniProt Q99JB6)
T1 sequence: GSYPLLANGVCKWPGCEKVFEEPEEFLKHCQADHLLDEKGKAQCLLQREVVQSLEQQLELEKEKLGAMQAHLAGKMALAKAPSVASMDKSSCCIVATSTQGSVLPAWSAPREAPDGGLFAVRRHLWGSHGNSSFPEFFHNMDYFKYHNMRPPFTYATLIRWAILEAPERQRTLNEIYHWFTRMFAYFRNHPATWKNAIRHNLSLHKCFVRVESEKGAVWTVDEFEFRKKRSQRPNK
Test: PD-seq (MBP pull-down with sequencing)
Settings: 20 mM Tris-HCl pH 7.5, 100 mM NaCl, 1.5 mM MgCl2, 0.4 uM protein, 0.1 uM dsDNA library, 30 min, room temperature, amylose pull-down; high values mean tight binding; double strand, one strand shown

Which binding signal (RPM ratio (pull-down/input)) does the source give for “GATGATTGTTCTCCCAGCTGATGAATTACCTCCGTCGAGTAAACAAATTTTCCTAATCTTTCTGTTCAAGCGCCATCTAC” here?
The binding signal (RPM ratio (pull-down/input)) was 0.243.

Which binding signal (RPM ratio (pull-down/input)) does the source give for “GATGATTGTTCTCCCAGCTGATGAATTTACTTGCTCGAGTAAACAAATTTTCCTAATCTTTCTGTTCAAGCGCCATCTAC” here?
Its binding signal (RPM ratio (pull-down/input)) is 1.61.

How did the binding signal (RPM ratio (pull-down/input)) turn out when “GATGATTGTTCTCCCAGCTGATGAATTTTCGGCCTCGAGTAAACAAATTTTCCTAATCTTTCTGTTCAAGCGCCATCTAC” was run?
Its binding signal (RPM ratio (pull-down/input)) is 0.395.

Which binding signal (RPM ratio (pull-down/input)) does the source give for “GATGATTGTTCTCCCAGCTGATGAATTTAGATGATCGAGTAAACAAATTTTCCTAATCTTTCTGTTCAAGCGCCATCTAC” here?
The binding signal (RPM ratio (pull-down/input)) was 0.728.

With “GATGATTGTTCTCCCAGCTGATGAATTAGGAGTTTCGAGTAAACAAATTTTCCTAATCTTTCTGTTCAAGCGCCATCTAC” as the sequence, how does the binding signal (RPM ratio (pull-down/input)) read?
Its binding signal (RPM ratio (pull-down/input)) is 0.95.

How did the binding signal (RPM ratio (pull-down/input)) turn out when “GATGATTGTTCTCCCAGCTGATGAATTTGTCCATTCGAGTAAACAAATTTTCCTAATCTTTCTGTTCAAGCGCCATCTAC” was run?
The binding signal (RPM ratio (pull-down/input)) was 2.42.

For “GATGATTGTTCTCCCAGCTGATGAATTTTTCGCGTCGAGTAAACAAATTTTCCTAATCTTTCTGTTCAAGCGCCATCTAC”, which binding signal (RPM ratio (pull-down/input)) is on record?
Its binding signal (RPM ratio (pull-down/input)) is 0.414.

With “GATGATTGTTCTCCCAGCTGATGAATTATACGTATCGAGTAAACAAATTTTCCTAATCTTTCTGTTCAAGCGCCATCTAC” as the sequence, how does the binding signal (RPM ratio (pull-down/input)) read?
Its binding signal (RPM ratio (pull-down/input)) is 0.75.

How did the binding signal (RPM ratio (pull-down/input)) turn out when “GATGATTGTTCTCCCAGCTGATGAATTGACGTTCTCGAGTAAACAAATTTTCCTAATCTTTCTGTTCAAGCGCCATCTAC” was run?
Its binding signal (RPM ratio (pull-down/input)) is 0.613.

For “GATGATTGTTCTCCCAGCTGATGAATTGGAGTAGTCGAGTAAACAAATTTTCCTAATCTTTCTGTTCAAGCGCCATCTAC”, which binding signal (RPM ratio (pull-down/input)) is on record?
Its binding signal (RPM ratio (pull-down/input)) is 0.38.

How did the binding signal (RPM ratio (pull-down/input)) turn out when “GATGATTGTTCTCCCAGCTGATGAATTCATGTGCTCGAGTAAACAAATTTTCCTAATCTTTCTGTTCAAGCGCCATCTAC” was run?
The binding signal (RPM ratio (pull-down/input)) was 0.894.

For “GATGATTGTTCTCCCAGCTGATGAATTCTGGAAATCGAGTAAACAAATTTTCCTAATCTTTCTGTTCAAGCGCCATCTAC”, which binding signal (RPM ratio (pull-down/input)) is on record?
Its binding signal (RPM ratio (pull-down/input)) is 0.256.

Which binding signal (RPM ratio (pull-down/input)) does the source give for “GATGATTGTTCTCCCAGCTGATGAATTCCCTAGGTCGAGTAAACAAATTTTCCTAATCTTTCTGTTCAAGCGCCATCTAC” here?
The binding signal (RPM ratio (pull-down/input)) was 0.184.

Which binding signal (RPM ratio (pull-down/input)) does the source give for “GATGATTGTTCTCCCAGCTGATGAATTATTATTGTCGAGTAAACAAATTTTCCTAATCTTTCTGTTCAAGCGCCATCTAC” here?
Its binding signal (RPM ratio (pull-down/input)) is 2.61.

For “GATGATTGTTCTCCCAGCTGATGAATTGACTACATCGAGTAAACAAATTTTCCTAATCTTTCTGTTCAAGCGCCATCTAC”, which binding signal (RPM ratio (pull-down/input)) is on record?
Its binding signal (RPM ratio (pull-down/input)) is 0.519.

“GATGATTGTTCTCCCAGCTGATGAATTAGGCTCCTCGAGTAAACAAATTTTCCTAATCTTTCTGTTCAAGCGCCATCTAC” was tested. Which binding signal (RPM ratio (pull-down/input)) did it give?
The binding signal (RPM ratio (pull-down/input)) was 0.814.

For “GATGATTGTTCTCCCAGCTGATGAATTTAAATCTTCGAGTAAACAAATTTTCCTAATCTTTCTGTTCAAGCGCCATCTAC”, which binding signal (RPM ratio (pull-down/input)) is on record?
Its binding signal (RPM ratio (pull-down/input)) is 0.312.

“GATGATTGTTCTCCCAGCTGATGAATTTTGTAATTCGAGTAAACAAATTTTCCTAATCTTTCTGTTCAAGCGCCATCTAC” was tested. Which binding signal (RPM ratio (pull-down/input)) did it give?
The binding signal (RPM ratio (pull-down/input)) was 3.43.

Which binding signal (RPM ratio (pull-down/input)) does the source give for “GATGATTGTTCTCCCAGCTGATGAATTTCCTTTATCGAGTAAACAAATTTTCCTAATCTTTCTGTTCAAGCGCCATCTAC” here?
The binding signal (RPM ratio (pull-down/input)) was 0.431.

“GATGATTGTTCTCCCAGCTGATGAATTGCCTGCTTCGAGTAAACAAATTTTCCTAATCTTTCTGTTCAAGCGCCATCTAC” was tested. Which binding signal (RPM ratio (pull-down/input)) did it give?
Its binding signal (RPM ratio (pull-down/input)) is 0.766.

For “GATGATTGTTCTCCCAGCTGATGAATTTCGACGCTCGAGTAAACAAATTTTCCTAATCTTTCTGTTCAAGCGCCATCTAC”, which binding signal (RPM ratio (pull-down/input)) is on record?
The binding signal (RPM ratio (pull-down/input)) was 0.517.

For “GATGATTGTTCTCCCAGCTGATGAATTGAAGTGTTCGAGTAAACAAATTTTCCTAATCTTTCTGTTCAAGCGCCATCTAC”, which binding signal (RPM ratio (pull-down/input)) is on record?
The binding signal (RPM ratio (pull-down/input)) was 0.596.

With “GATGATTGTTCTCCCAGCTGATGAATTTACTTGATCGAGTAAACAAATTTTCCTAATCTTTCTGTTCAAGCGCCATCTAC” as the sequence, how does the binding signal (RPM ratio (pull-down/input)) read?
Its binding signal (RPM ratio (pull-down/input)) is 0.505.

For “GATGATTGTTCTCCCAGCTGATGAATTCCCATACTCGAGTAAACAAATTTTCCTAATCTTTCTGTTCAAGCGCCATCTAC”, which binding signal (RPM ratio (pull-down/input)) is on record?
The binding signal (RPM ratio (pull-down/input)) was 0.332.

For “GATGATTGTTCTCCCAGCTGATGAATTCGCGCGTTCGAGTAAACAAATTTTCCTAATCTTTCTGTTCAAGCGCCATCTAC”, which binding signal (RPM ratio (pull-down/input)) is on record?
Its binding signal (RPM ratio (pull-down/input)) is 1.62.

How did the binding signal (RPM ratio (pull-down/input)) turn out when “GATGATTGTTCTCCCAGCTGATGAATTACACGCTTCGAGTAAACAAATTTTCCTAATCTTTCTGTTCAAGCGCCATCTAC” was run?
The binding signal (RPM ratio (pull-down/input)) was 0.71.

“GATGATTGTTCTCCCAGCTGATGAATTCTACCTCTCGAGTAAACAAATTTTCCTAATCTTTCTGTTCAAGCGCCATCTAC” was tested. Which binding signal (RPM ratio (pull-down/input)) did it give?
Its binding signal (RPM ratio (pull-down/input)) is 0.381.

With “GATGATTGTTCTCCCAGCTGATGAATTCAGGGGTTCGAGTAAACAAATTTTCCTAATCTTTCTGTTCAAGCGCCATCTAC” as the sequence, how does the binding signal (RPM ratio (pull-down/input)) read?
Its binding signal (RPM ratio (pull-down/input)) is 0.479.

“GATGATTGTTCTCCCAGCTGATGAATTATACATCTCGAGTAAACAAATTTTCCTAATCTTTCTGTTCAAGCGCCATCTAC” was tested. Which binding signal (RPM ratio (pull-down/input)) did it give?
The binding signal (RPM ratio (pull-down/input)) was 0.853.

Which binding signal (RPM ratio (pull-down/input)) does the source give for “GATGATTGTTCTCCCAGCTGATGAATTGTAGCTATCGAGTAAACAAATTTTCCTAATCTTTCTGTTCAAGCGCCATCTAC” here?
Its binding signal (RPM ratio (pull-down/input)) is 1.07.

Which binding signal (RPM ratio (pull-down/input)) does the source give for “GATGATTGTTCTCCCAGCTGATGAATTTTACGCGTCGAGTAAACAAATTTTCCTAATCTTTCTGTTCAAGCGCCATCTAC” here?
Its binding signal (RPM ratio (pull-down/input)) is 0.624.

For “GATGATTGTTCTCCCAGCTGATGAATTACGCGGTTCGAGTAAACAAATTTTCCTAATCTTTCTGTTCAAGCGCCATCTAC”, which binding signal (RPM ratio (pull-down/input)) is on record?
Its binding signal (RPM ratio (pull-down/input)) is 0.676.

“GATGATTGTTCTCCCAGCTGATGAATTACAATTATCGAGTAAACAAATTTTCCTAATCTTTCTGTTCAAGCGCCATCTAC” was tested. Which binding signal (RPM ratio (pull-down/input)) did it give?
Its binding signal (RPM ratio (pull-down/input)) is 1.19.

With “GATGATTGTTCTCCCAGCTGATGAATTGAAAATGTCGAGTAAACAAATTTTCCTAATCTTTCTGTTCAAGCGCCATCTAC” as the sequence, how does the binding signal (RPM ratio (pull-down/input)) read?
The binding signal (RPM ratio (pull-down/input)) was 0.244.

How did the binding signal (RPM ratio (pull-down/input)) turn out when “GATGATTGTTCTCCCAGCTGATGAATTTCCCATCTCGAGTAAACAAATTTTCCTAATCTTTCTGTTCAAGCGCCATCTAC” was run?
The binding signal (RPM ratio (pull-down/input)) was 0.305.

For “GATGATTGTTCTCCCAGCTGATGAATTCCGTTCATCGAGTAAACAAATTTTCCTAATCTTTCTGTTCAAGCGCCATCTAC”, which binding signal (RPM ratio (pull-down/input)) is on record?
Its binding signal (RPM ratio (pull-down/input)) is 0.511.

“GATGATTGTTCTCCCAGCTGATGAATTCCCACTTTCGAGTAAACAAATTTTCCTAATCTTTCTGTTCAAGCGCCATCTAC” was tested. Which binding signal (RPM ratio (pull-down/input)) did it give?
Its binding signal (RPM ratio (pull-down/input)) is 0.326.

“GATGATTGTTCTCCCAGCTGATGAATTGACTGAGTCGAGTAAACAAATTTTCCTAATCTTTCTGTTCAAGCGCCATCTAC” was tested. Which binding signal (RPM ratio (pull-down/input)) did it give?
Its binding signal (RPM ratio (pull-down/input)) is 0.276.

How did the binding signal (RPM ratio (pull-down/input)) turn out when “GATGATTGTTCTCCCAGCTGATGAATTGTAAGTTTCGAGTAAACAAATTTTCCTAATCTTTCTGTTCAAGCGCCATCTAC” was run?
Its binding signal (RPM ratio (pull-down/input)) is 0.584.

How did the binding signal (RPM ratio (pull-down/input)) turn out when “GATGATTGTTCTCCCAGCTGATGAATTCCGTGTCTCGAGTAAACAAATTTTCCTAATCTTTCTGTTCAAGCGCCATCTAC” was run?
The binding signal (RPM ratio (pull-down/input)) was 1.42.
